Experimental data published in the supplement of paper PMC4604168 (melanoma cell lines).
The list shows a part of the results. Single values are uncertain, as repeats are few or missing.

Columns and labels:
Experiment in all cases: cell count relative to DMSO control; melanoma cells; higher = more viable cells
Conditions in all cases: library dose: standard library concentration; 72 h
G361 = tested on: G361
IPC-298 = tested on: IPC-298
IST-MEL1 = tested on: IST-MEL1
LB2518-MEL = tested on: LB2518-MEL
LOXIMVI = tested on: LOXIMVI
MEL-HO = tested on: MEL-HO
MZ2-MEL = tested on: MZ2-MEL
MeWo = tested on: MeWo
RPMI7951 = tested on: RPMI7951
RVH-421 = tested on: RVH-421
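Note: cells treated in 1,536-well plates, then fixed and DAPI-stained, with nuclei counted from automated high-throughput microscope images.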

Row | Structure (SMILES) | cell count (G361) [%] | cell count (IPC-298) [%] | cell count (IST-MEL1) [%] | cell count (LB2518-MEL) [%] | cell count (LOXIMVI) [%] | cell count (MEL-HO) [%] | cell count (MZ2-MEL) [%] | cell count (MeWo) [%] | cell count (RPMI7951) [%] | cell count (RVH-421) [%]
1 | CC1(C)CCC(c2ccc(Cl)cc2)=C(CN2CCN(c3ccc(C(=O)NS(=O)(=O)c4ccc(N[C@H](CCN5CCOCC5)CSc5ccccc5)c(S(=O)(=O)C(F)(F)F)c4)cc3)CC2)C1 + COc1ccc(Cl)c(Nc2nc3ccccc3nc2NS(=O)(=O)c2cccc(NC(=O)C(C)(C)N)c2)c1 [XL147] (first compound 2 µM, partner dose 4 µM) | 63.5 | 74.4 | 56.6 | 79 | 53 | 53.7 | 84.9 | 77.9 | 64.2 | 50.6
2 | O=C(/C=C/c1cccnc1)NCCCCC1CCN(C(=O)c2ccccc2)CC1 + O=C(O)c1ccc2c(c1)nc(Nc1cccc(Cl)c1)c1ccncc12 [CX4945] (first compound 0.05 µM, partner dose 2 µM) | 2.79 | 32.5 | 55.5 | 64.6 | 55.7 | 32.3 | 27.2 | 93.3 | 75.5 | 38.7
3 | Cc1ccc(Nc2nccc(N(C)c3ccc4c(C)n(C)nc4c3)n2)cc1S(N)(=O)=O [Pazopanib] + CO[C@H]1C[C@@H]2CC[C@@H](C)[C@@](O)(O2)C(=O)C(=O)N2CCCC[C@H]2C(=O)O[C@H]([C@H](C)C[C@@H]2CC[C@@H](OCCO)[C@H](OC)C2)CC(=O)[C@H](C)/C=C(\C)[C@@H](O)[C@@H](OC)C(=O)[C@H](C)C[C@H](C)/C=C/C=C/C=C/1C [everolimus] (first compound 2 µM, partner dose 0.1 µM) | 68 | 45.2 | 78 | 53.1 | 82.5 | 61.3 | 56.6 | 62.4 | 64.9 | 85.8
4 | Cc1ccc(Nc2nccc(N(C)c3ccc4c(C)n(C)nc4c3)n2)cc1S(N)(=O)=O [Pazopanib] + Cn1nnc2c(C(N)=O)ncn2c1=O [temozolomide] (first compound 2 µM, partner dose 10 µM) | 72.1 | 69.4 | 80.6 | 73.6 | 74.5 | 79.7 | 64.2 | 81.4 | 70.4 | 69.3
5 | O=C(/C=C/c1cccnc1)NCCCCC1CCN(C(=O)c2ccccc2)CC1 + c1cc(-c2cnn3cc(-c4ccc(OCCN5CCCCC5)cc4)cnc23)ccn1 [Dorsomorphin] (first compound 0.05 µM, partner dose 2 µM) | 4.88 | 27.9 | 58.6 | 70 | 92.2 | 43.7 | 30 | 79.2 | 98.1 | 41.2
6 | CC1(C)CCC(c2ccc(Cl)cc2)=C(CN2CCN(c3ccc(C(=O)NS(=O)(=O)c4ccc(N[C@H](CCN5CCOCC5)CSc5ccccc5)c(S(=O)(=O)C(F)(F)F)c4)cc3)CC2)C1 + CC(C)CCN1c2nc(Nc3cc(F)c(O)c(F)c3)ncc2N(C)C(=O)C1C [BID1870] (first compound 2 µM, partner dose 1 µM) | 76.6 | 82 | 56 | 84.5 | 38.4 | 30.7 | 90.5 | 65.3 | 43.5 | 26.9
7 | O=C(/C=C/c1cccnc1)NCCCCC1CCN(C(=O)c2ccccc2)CC1 + C=CCNC1=C2C[C@@H](C)C[C@H](OC)[C@H](O)[C@@H](C)/C=C(\C)[C@H](OC(N)=O)[C@@H](OC)/C=C\C=C(/C)C(=O)NC(=CC1=O)C2=O [Tanespimycin] (first compound 0.05 µM, partner dose 0.01 µM) | 3.95 | 43.8 | 53.6 | 84 | 72.2 | 40.1 | 33.5 | 59.5 | 21.4 | 32.2
8 | CC1(C)CCC(c2ccc(Cl)cc2)=C(CN2CCN(c3ccc(C(=O)NS(=O)(=O)c4ccc(N[C@H](CCN5CCOCC5)CSc5ccccc5)c(S(=O)(=O)C(F)(F)F)c4)cc3)CC2)C1 + OCCn1cc(-c2cnc3nnn(Cc4ccc5ncccc5c4)c3n2)cn1 [PF04217903] (first compound 2 µM, partner dose 5 µM) | 63.4 | 112 | 38.8 | 79.7 | 48.8 | 66.9 | 111 | 85.7 | 36.9 | 78.8
9 | CC1(C)CCC(c2ccc(Cl)cc2)=C(CN2CCN(c3ccc(C(=O)NS(=O)(=O)c4ccc(N[C@H](CCN5CCOCC5)CSc5ccccc5)c(S(=O)(=O)C(F)(F)F)c4)cc3)CC2)C1 + CC(C)C[C@H](NC(=O)[C@H](Cc1ccccc1)NC(=O)c1cnccn1)B(O)O [Bortezomib] (first compound 2 µM, partner dose 0.005 µM) | 1.16 | 6.05 | 9.54 | 1.67 | 30.8 | 12.4 | 1.76 | 12.9 | 2.56 | 7.1
10 | Cc1ccc(Nc2nccc(N(C)c3ccc4c(C)n(C)nc4c3)n2)cc1S(N)(=O)=O [Pazopanib] + Cn1cc(/C=C2\C(=O)Nc3cccnc32)c2ccccc21 [GW441756] (first compound 2 µM, partner dose 2 µM) | 74.3 | 60.6 | 88.7 | 73.5 | 96.4 | 89.1 | 75.3 | 104 | 79.1 | 100
11 | O=C(/C=C/c1cccnc1)NCCCCC1CCN(C(=O)c2ccccc2)CC1 + O=C(O)C(=O)Nc1sc2c(c1C(=O)O)CCNC2 [TCS401] (first compound 0.05 µM, partner dose 8.33333 µM) | 8.63 | 42.4 | 66.3 | 62 | 86.1 | 48.4 | 67.9 | 91 | 93.8 | 68.7
12 | CC1(C)CCC(c2ccc(Cl)cc2)=C(CN2CCN(c3ccc(C(=O)NS(=O)(=O)c4ccc(N[C@H](CCN5CCOCC5)CSc5ccccc5)c(S(=O)(=O)C(F)(F)F)c4)cc3)CC2)C1 + COc1cc(N2CCC(N3CCN(C)CC3)CC2)ccc1Nc1ncc(Cl)c(Nc2ccccc2S(=O)(=O)C(C)C)n1 [NVP-TAE684] (first compound 2 µM, partner dose 0.4 µM) | 49.8 | 79.3 | 73.5 | 72.1 | 38.9 | 46 | 83.6 | 52 | 26.2 | 71.7
13 | O=C(/C=C/c1cccnc1)NCCCCC1CCN(C(=O)c2ccccc2)CC1 + NC(=O)c1ccc(N(C(N)=O)c2c(F)cccc2F)nc1-c1ccc(F)cc1F [VX702] (first compound 0.05 µM, partner dose 2 µM) | 4.64 | 37.6 | 64 | 60.4 | 131 | 36.8 | 27.6 | 106 | 64.9 | 32.1
14 | CC1(C)CCC(c2ccc(Cl)cc2)=C(CN2CCN(c3ccc(C(=O)NS(=O)(=O)c4ccc(N[C@H](CCN5CCOCC5)CSc5ccccc5)c(S(=O)(=O)C(F)(F)F)c4)cc3)CC2)C1 + COc1cc2ncnc(Nc3ccc(Oc4ccccc4)cc3)c2cc1OC [SrcI1] (first compound 2 µM, partner dose 10 µM) | 34.3 | 103 | 43.4 | 111 | 34.7 | 62.3 | 75.9 | 80.7 | 14.8 | 14.9
15 | Cc1ccc(Nc2nccc(N(C)c3ccc4c(C)n(C)nc4c3)n2)cc1S(N)(=O)=O [Pazopanib] + O=S(=O)(c1ccccc1)N(CC(F)(F)F)c1ccc(C(O)(C(F)(F)F)C(F)(F)F)cc1 [T0901317] (first compound 2 µM, partner dose 7 µM) | 72.7 | 77.4 | 89.5 | 87.9 | 72.5 | 90.3 | 83.9 | 77.6 | 67.2 | 119
16 | Cc1ccc(Nc2nccc(N(C)c3ccc4c(C)n(C)nc4c3)n2)cc1S(N)(=O)=O [Pazopanib] + CS(=O)(=O)CCNCc1ccc(-c2ccc3ncnc(Nc4ccc(OCc5cccc(F)c5)c(Cl)c4)c3c2)o1 [lapatinib] (first compound 2 µM, partner dose 4 µM) | 41.4 | 59.8 | 81.3 | 65.7 | 78 | 66.2 | 34 | 50.8 | 25.1 | 66.2
17 | CC1(C)CCC(c2ccc(Cl)cc2)=C(CN2CCN(c3ccc(C(=O)NS(=O)(=O)c4ccc(N[C@H](CCN5CCOCC5)CSc5ccccc5)c(S(=O)(=O)C(F)(F)F)c4)cc3)CC2)C1 + Cc1nc(Nc2ncc(C(=O)Nc3c(C)cccc3Cl)s2)cc(N2CCN(CCO)CC2)n1 [dasatanib] (first compound 2 µM, partner dose 0.02 µM) | 63.8 | 87.6 | 48.2 | 76.7 | 17.1 | 43 | 42.2 | 73.7 | 18.5 | 47.5
18 | Cc1ccc(Nc2nccc(N(C)c3ccc4c(C)n(C)nc4c3)n2)cc1S(N)(=O)=O [Pazopanib] + COc1cc(N2CCC(N3CCN(C)CC3)CC2)ccc1Nc1ncc(Cl)c(Nc2ccccc2S(=O)(=O)C(C)C)n1 [NVP-TAE684] (first compound 2 µM, partner dose 0.4 µM) | 65.1 | 67.9 | 95.1 | 83 | 80.1 | 80.3 | 69.7 | 58.8 | 67.2 | 99
19 | O=C(/C=C/c1cccnc1)NCCCCC1CCN(C(=O)c2ccccc2)CC1 + CCc1ccc(CCOc2ccc(CC3SC(=O)NC3=O)cc2)nc1 [pioglitazone] (first compound 0.05 µM, partner dose 10 µM) | 2.64 | 31.5 | 50 | 67.6 | 83.4 | 43.4 | 44.3 | 114 | 99 | 24.2
20 | CC1(C)CCC(c2ccc(Cl)cc2)=C(CN2CCN(c3ccc(C(=O)NS(=O)(=O)c4ccc(N[C@H](CCN5CCOCC5)CSc5ccccc5)c(S(=O)(=O)C(F)(F)F)c4)cc3)CC2)C1 + CC(=O)O[C@@]12CO[C@@H]1C[C@H](O)[C@@]1(C)C(=O)[C@H](O)C3=C(C)[C@@H](OC(=O)[C@H](O)[C@@H](NC(=O)OC(C)(C)C)c4ccccc4)C[C@@](O)([C@@H](OC(=O)c4ccccc4)[C@H]21)C3(C)C [Docetaxel] (first compound 2 µM, partner dose 0.0005 µM) | 7.67 | 27.7 | 6.51 | 22.9 | 17 | 11.2 | 16.3 | 12.3 | 6.72 | 27.6
